The list shows a part of the results. At the low end of the ranking the order means little.

For this experiment, the target named is T1, ELK1 (UniProt P19419).
T1 sequence: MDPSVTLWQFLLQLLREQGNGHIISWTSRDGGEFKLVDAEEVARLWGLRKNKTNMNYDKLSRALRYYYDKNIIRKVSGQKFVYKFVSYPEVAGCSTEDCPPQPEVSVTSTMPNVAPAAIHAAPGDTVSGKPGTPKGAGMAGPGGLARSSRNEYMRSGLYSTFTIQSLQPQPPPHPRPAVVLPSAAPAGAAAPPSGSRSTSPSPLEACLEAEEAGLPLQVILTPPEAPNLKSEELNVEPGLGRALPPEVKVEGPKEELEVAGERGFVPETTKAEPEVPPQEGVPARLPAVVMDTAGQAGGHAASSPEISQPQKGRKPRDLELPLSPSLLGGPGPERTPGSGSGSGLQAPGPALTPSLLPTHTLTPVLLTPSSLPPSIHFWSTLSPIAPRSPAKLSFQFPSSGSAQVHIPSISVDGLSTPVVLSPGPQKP
As to the kind of experiment: custom PBM. Conditions: custom protein-binding microarray; buffer, salt, pH and temperature not stated; high values mean tight binding; double strand, one strand shown.
As to “GTGTATAGGCTCCCATCCAACACACGTGTTAAAATGGTCTTGATTCGCTTGACGCTGCTG”, the binding signal (log fluorescence intensity) was determined as 8.75.

With “TACTGACTTATATGTGCGAATGCACATGAATAGACCGTCTTGATTCGCTTGACGCTGCTG”, the binding signal (log fluorescence intensity) came to 8.89.

In the case of “GTGTATAGGATCCCATCCAACACACGTGTAAAAATGGTCTTGATTCGCTTGACGCTGCTG”, the binding signal (log fluorescence intensity) was 8.87.

For the sequence “TCCGGCTACCAGCTCCACCCACTTCAGGCCTCGTAGGTCTTGATTCGCTTGACGCTGCTG”, the binding signal (log fluorescence intensity) was determined as 8.87.

For “CACAATTTTTACAGTAATGTTGCACGCGTAACTCCTGTCTTGATTCGCTTGACGCTGCTG”, the binding signal (log fluorescence intensity) stood at 8.7.

Regarding “TAAAGGGAAGACGGTTGTGGGAGTTCCGGGTATTAAGTCTTGATTCGCTTGACGCTGCTG”, the binding signal (log fluorescence intensity) is 11.

Consider “GGGTATAGGATCCCATCCAACACACGTGTTAAAATGGTCTTGATTCGCTTGACGCTGCTG”, for which the binding signal (log fluorescence intensity) amounted to 8.93.

Turning to “GGAAAAAGGCCCAGGGTAACACCGGAAGAGGGCTTAGTCTTGATTCGCTTGACGCTGCTG”, the binding signal (log fluorescence intensity) was found to be 10.2.

Turning to “TGTCGGGTAAGGGAAGGTAGATCACGTGAATGAAAAGTCTTGATTCGCTTGACGCTGCTG”, the binding signal (log fluorescence intensity) came out at 8.89.

Consider “TGTCGGGTAAGGGAATGTAGAACACGTGAATGAAAAGTCTTGATTCGCTTGACGCTGCTG”, for which the binding signal (log fluorescence intensity) turned out to be 8.96.

For the sequence “GATTAATTTCTGCCCTTATTCGCACGTGCCATAACGGTCTTGATTCGCTTGACGCTGCTG”, the binding signal (log fluorescence intensity) was found to be 8.95.

Regarding “CGGAAGTGTCGTAAACGTCGGATATCCGCTTCTTCTGTCTTGATTCGCTTGACGCTGCTG”, the binding signal (log fluorescence intensity) was found to be 11.5.

As to “CTGGGACTTGACACAACTCTGCCACGTGGGTCGTTTGTCTTGATTCGCTTGACGCTGCTG”, the binding signal (log fluorescence intensity) came out at 8.99.

Take “TGTCGGGTGAGGGAATGTAGATCACGTGAATGAAAAGTCTTGATTCGCTTGACGCTGCTG”: the binding signal (log fluorescence intensity) came to 9.

Turning to “GGAAAAAGGCCCAGGGTAAGACCGGAAGTGGGCTTAGTCTTGATTCGCTTGACGCTGCTG”, the binding signal (log fluorescence intensity) was 10.9.

Take “GGAAAAAGGCCCAGGGTAACACCGGAAGTGGGCTTTGTCTTGATTCGCTTGACGCTGCTG”: the binding signal (log fluorescence intensity) amounted to 11.3.

For the sequence “TCCGGCTACCAGCTCCACCCACTTCAGGCCTTGTACGTCTTGATTCGCTTGACGCTGCTG”, the binding signal (log fluorescence intensity) worked out at 8.77.

As for “TGTCGGATAAGGGAATGTAGATCACGTGAATGAAAAGTCTTGATTCGCTTGACGCTGCTG”, the binding signal (log fluorescence intensity) was 8.81.

Regarding “TGTCGGGTAAGGGAATGTAGATCAGGTGAATGAAAAGTCTTGATTCGCTTGACGCTGCTG”, the binding signal (log fluorescence intensity) stood at 8.98.

For the sequence “CGGAAGTGTCGTAAACGTCCGATATCCGGTTCTTCTGTCTTGATTCGCTTGACGCTGCTG”, the binding signal (log fluorescence intensity) is 12.3.

In the case of “CAGCATAGGACTTCTTTCCTGAAGCAATTGATAACCGTCTTGATTCGCTTGACGCTGCTG”, the binding signal (log fluorescence intensity) was 8.97.

For the sequence “GCTGCTGCGGTGCATACCCCACCGGATGTGGCCCCGGTCTTGATTCGCTTGACGCTGCTG”, the binding signal (log fluorescence intensity) amounted to 10.2.

Regarding “TACTGACTTATATATGCGAATGCACTTGAATAGACCGTCTTGATTCGCTTGACGCTGCTG”, the binding signal (log fluorescence intensity) turned out to be 8.94.

Consider “GCTGCTGCGGTGCATACCCCACCGGATGTGACCCCAGTCTTGATTCGCTTGACGCTGCTG”, for which the binding signal (log fluorescence intensity) was 10.3.

For the sequence “TGTCGGGTAAGGGAATGTAGATCACGTGATTGAAAAGTCTTGATTCGCTTGACGCTGCTG”, the binding signal (log fluorescence intensity) was determined as 8.86.

On to “GATTAATTTCTGCCCTTATTCGCACGTGGCATAACAGTCTTGATTCGCTTGACGCTGCTG”, for which the binding signal (log fluorescence intensity) was 9.09.

As for “GCTGCTGCGGTGCATACCCCACCGGATGTCACCCCGGTCTTGATTCGCTTGACGCTGCTG”, the binding signal (log fluorescence intensity) worked out at 10.1.

Turning to “CAGCATAGGACTTCTTCCGTGAAGCAATTGATAACCGTCTTGATTCGCTTGACGCTGCTG”, the binding signal (log fluorescence intensity) came to 10.8.

As to “CACAATTTTAACAGTAATGTAGCACGCGTAACTCCTGTCTTGATTCGCTTGACGCTGCTG”, the binding signal (log fluorescence intensity) stood at 8.9.

On to “CTGGGACTTGACCCAACTCAGCCACGTGGGTCGTTTGTCTTGATTCGCTTGACGCTGCTG”, for which the binding signal (log fluorescence intensity) was 8.78.

With “CACAATGTTTACAGTAATGTAGCACGCGTAACTCCTGTCTTGATTCGCTTGACGCTGCTG”, the binding signal (log fluorescence intensity) was 9.

In the case of “GATTAATTGCTGCCCTTATTCGCACGTGCCATAACAGTCTTGATTCGCTTGACGCTGCTG”, the binding signal (log fluorescence intensity) was found to be 8.88.

For the sequence “AACAATTTTTACAGTAATGTAGCACGCGTAACTCCTGTCTTGATTCGCTTGACGCTGCTG”, the binding signal (log fluorescence intensity) was found to be 8.92.

In the case of “GGCAAAAGGCCCAGGGTAACACCGGAAGTGGGCTTAGTCTTGATTCGCTTGACGCTGCTG”, the binding signal (log fluorescence intensity) amounted to 10.6.

Regarding “CGGAAGAGTCGTAAACGTCGGATATCCGGTTCTTCTGTCTTGATTCGCTTGACGCTGCTG”, the binding signal (log fluorescence intensity) is 12.3.

For “TAAAGGGAAGACGGTTGTGGTAGGTCCGGGTATTAAGTCTTGATTCGCTTGACGCTGCTG”, the binding signal (log fluorescence intensity) was found to be 8.98.

In the case of “TGTCGGGTAAGCGAATGTAGATCACGTGAATGAAAAGTCTTGATTCGCTTGACGCTGCTG”, the binding signal (log fluorescence intensity) is 9.

“GCTGCTGCGGTCCATACCCCACCGGATGTGACCCCGGTCTTGATTCGCTTGACGCTGCTG”: the binding signal (log fluorescence intensity) came out at 10.3.

Consider “TATTGACTTATATATGCGAATGCACATGAATAGACCGTCTTGATTCGCTTGACGCTGCTG”, for which the binding signal (log fluorescence intensity) was 8.8.

For the sequence “CAGCATAGGACTGCTTCCCTGAAGCAATTGATAACCGTCTTGATTCGCTTGACGCTGCTG”, the binding signal (log fluorescence intensity) was 8.86.

The values above are taken from article PMC6602471.
